Out of some 310,000 compounds screened, about 2,200 (0.71%) showed an effect of 50% or more. Effects have a minus sign here. Some of the results follow.
These compounds were tested against human ether-à-go-go-related gene (hERG) potassium channel (human, UniProt Q12809) (assay: primary screen, population patch clamp on CHO cells stably expressing hERG).
Sequence of human ether-à-go-go-related gene (hERG) potassium channel (Q12809 whole entry, looked up): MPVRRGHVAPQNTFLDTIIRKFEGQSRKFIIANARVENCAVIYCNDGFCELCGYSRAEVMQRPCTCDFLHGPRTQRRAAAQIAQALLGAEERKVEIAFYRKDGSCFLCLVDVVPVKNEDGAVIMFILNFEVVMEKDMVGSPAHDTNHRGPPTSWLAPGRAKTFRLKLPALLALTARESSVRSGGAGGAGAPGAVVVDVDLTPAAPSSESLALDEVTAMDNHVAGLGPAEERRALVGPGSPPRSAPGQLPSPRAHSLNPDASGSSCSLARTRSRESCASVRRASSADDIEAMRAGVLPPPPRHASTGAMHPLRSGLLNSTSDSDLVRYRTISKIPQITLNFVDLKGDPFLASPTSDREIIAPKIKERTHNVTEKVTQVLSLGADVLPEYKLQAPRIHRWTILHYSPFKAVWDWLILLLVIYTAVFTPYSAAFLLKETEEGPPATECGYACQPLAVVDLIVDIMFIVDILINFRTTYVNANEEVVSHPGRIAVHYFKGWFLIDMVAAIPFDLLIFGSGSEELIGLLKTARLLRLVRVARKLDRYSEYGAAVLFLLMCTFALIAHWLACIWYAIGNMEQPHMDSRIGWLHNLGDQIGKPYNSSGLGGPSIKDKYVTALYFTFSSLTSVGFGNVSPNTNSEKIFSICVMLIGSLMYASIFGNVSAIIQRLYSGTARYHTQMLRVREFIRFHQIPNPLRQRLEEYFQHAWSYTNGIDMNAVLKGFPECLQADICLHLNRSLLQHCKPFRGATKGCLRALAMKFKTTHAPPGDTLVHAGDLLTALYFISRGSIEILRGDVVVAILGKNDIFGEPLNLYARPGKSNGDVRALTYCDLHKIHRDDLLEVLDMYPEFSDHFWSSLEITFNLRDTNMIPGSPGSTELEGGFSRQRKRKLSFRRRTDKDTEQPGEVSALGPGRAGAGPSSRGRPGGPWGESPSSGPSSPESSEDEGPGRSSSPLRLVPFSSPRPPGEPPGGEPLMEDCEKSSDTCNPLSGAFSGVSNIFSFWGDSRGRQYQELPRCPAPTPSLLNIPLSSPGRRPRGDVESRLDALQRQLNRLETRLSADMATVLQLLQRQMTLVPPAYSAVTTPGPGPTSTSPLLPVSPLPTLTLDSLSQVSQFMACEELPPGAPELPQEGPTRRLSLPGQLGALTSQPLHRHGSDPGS

| Compound | hERG current change (%, negative = inhibition) at 1uM [%] |
| --- | --- |
| COC(=O)c1ccc2c(=O)n(Cc3ccco3)c(SCC(=O)Nc3ccc(C)c(Cl)c3)nc2c1 | 13.4 |
| COc1ccc(CCNC(=O)C(=O)NCC2CCCN2S(=O)(=O)c2ccc(OC)cc2)cc1 (centres unmarked) | 3.79 |
| Cc1cccc(NS(=O)(=O)c2ccc(Oc3ccccc3)cc2)n1 | -4.48 |
| COc1ccc(CNC(=O)CCS(=O)(=O)Cc2cccc(Cl)c2)c(OC)c1 | 17.9 |
| COc1ccc(OCC(=O)NC(=S)NNC(=O)COc2ccc(Br)cc2Cl)cc1 | 15.7 |
| O=C(NCCCO)c1cc2c(cn1)[nH]c1ccccc12 | 9.16 |
| COc1ccccc1OCCCC(=O)Nc1nnc(C2CCCO2)s1 (centres unmarked) | 11.2 |
| O=C(CSc1nnc(-c2ccc(F)cc2)o1)N1CCN(C(=O)c2ccco2)CC1 | -13.2 |
| CCOC(=O)c1sc(C)c2c1NC(C)(c1ccccc1)NC2=O (centres unmarked) | 5.72 |
| O=C(CC1C(=O)NCCN1Cc1ccccc1F)NC1CCCCCC1 (centres unmarked) | 14 |
| Cc1ccc(OCC(=O)Nc2cnn(CCCC(=O)O)c2)c([N+](=O)[O-])c1 | 11.3 |
| O=C(Cc1ccccc1)NC1CCN(S(=O)(=O)c2ccc(C(=O)O)cc2)CC1 | 12.6 |
| COc1ccc(C)cc1N(CC(=O)Nc1ccc(S(=O)(=O)N2CCCC2)cc1)S(C)(=O)=O | 14.6 |
| CC(=O)Nc1cccc(OC(=O)COc2ccc(Br)cc2)c1 | 9.27 |
| O=C1NCCCC1C(=O)N/N=C/c1cccc(Cl)c1 (centres unmarked) | 11.3 |
| CCOc1ccccc1NC(=O)NCc1ccc2c(c1)OCO2 | 8.26 |
| COc1ccc(C(=O)Nc2nnc(CCc3ccccc3)s2)c(OC)c1 | 13.9 |
| O=C(Nc1ccc(N2CCOCC2)c([N+](=O)[O-])c1)c1ccco1 | 4.62 |
| Cn1c(Cl)c(C(=O)Nc2ccc(Cl)cc2)c2ccccc21 | 14.4 |
| CN(C1CCCCC1)S(=O)(=O)c1ccc(S(=O)(=O)N2CCN(CCC#N)CC2)cc1 | 6.08 |
| O=C(CN1C(=O)NC2(CCCC2)C1=O)Nc1cccc(C(F)(F)F)c1 | 13.4 |
| COc1cc(C2/C(=C(\O)c3ccc4c(c3)OCCO4)C(=O)C(=O)N2c2nnc(C)s2)cc(OC)c1OC (centres unmarked) | 9.63 |

| Compound | hERG current change (%, negative = inhibition) at 1uM [%] |
| --- | --- |
| CS(=O)(=O)N1CCN(c2ccc(C(=O)NC34CC5CC(CC(C5)C3)C4)cc2[N+](=O)[O-])CC1 | 9.04 |
| CCOC(=O)N1CCC(NC(=O)c2ccc3c(Cl)c4c(nc3c2)CCCC4)CC1 | -3.34 |
| CC(C)COC(=O)NCC12C=CC(O1)C1C(=O)N(c3ccc(Cl)cc3)C(=O)C12 (centres unmarked) | 4.66 |
| CC(Nc1ncnc2ccccc12)c1ccccc1 (centres unmarked) | 13.3 |
| CC(C)C(=O)N1CCN(c2c(Cl)cccc2[N+](=O)[O-])CC1 | 5.7 |
| CC1CCCN(C(=O)COc2ccc(Nc3ccccc3)cc2)C1 (centres unmarked) | 5.73 |
| O=c1c2[nH]c3ccccc3c2ncn1CCN1CCOCC1 | 4.05 |
| Cc1cccc(C)c1NC(=O)CSc1nnc(C)n1CC1CCCO1 (centres unmarked) | 15.4 |
| Cc1cc(N2C(=O)C3C4C=CC(C4)C3C2=O)ccc1Br (centres unmarked) | 13.3 |
| O=C1CCC(=O)N1c1nc2nc(-c3ccccc3)cc(=O)n2[nH]1 | 21.1 |
| CCNC(=O)CSc1nc2cc(S(=O)(=O)Nc3ccc(OC)cc3)ccc2o1 | 12 |
| C=CCN1C(=O)C(CC(=O)Nc2ccc(OC)cc2)N(Cc2ccco2)C1=S (centres unmarked) | -7.23 |
| Cc1ccccc1Oc1ncccc1C(=O)/C(C#N)=C/N(C)C | 2.98 |
| CCOc1ccccc1NC(=O)C1CCCN(S(=O)(=O)c2ccc(OC)c(C)c2)C1 (centres unmarked) | 6.34 |
| Cc1ccc(C(=O)Nc2cc(C(F)(F)F)ccc2N2CCCCC2)cc1[N+](=O)[O-] | 14.2 |
| Cc1ccc(S(=O)(=O)N(C)c2ccc(OCC(=O)O)cc2)cc1 | 3.13 |
| CCOC(=O)C1=C(C)NC(=S)NC1C (centres unmarked) | 1.28 |
| Cc1ccc(C(=O)/C=C/NCc2ccc(F)cc2)cc1 | 11.6 |
| COc1ccc2nc(NC(=O)CCn3cccc3)sc2c1 | -0.35 |
| Cc1nc(SCC(=O)Nc2nnc(C(C)C)s2)n[nH]1 | 15.3 |
| NS(=O)(=O)c1ccc(-c2ccc(/C=N/NC(=O)c3ccc([N+](=O)[O-])cc3)o2)cc1 | 14.5 |
| COC(=O)c1cc(C(=O)Nc2ccc(C)cn2)cc([N+](=O)[O-])c1 | 3.12 |

| Compound | hERG current change (%, negative = inhibition) at 1uM [%] |
| --- | --- |
| CCOc1ccc(N2C(=O)C(c3ccccc3)=C(c3nc4ccccc4s3)C2NC(C)=O)cc1 (centres unmarked) | 1.03 |
| COC(=O)c1ccc(/C=N/n2cnnc2)cc1 | 12.7 |
| COc1ccc(-n2nnnc2SCC(=O)c2ccc(O)c(O)c2)cc1 | 1.49 |
| CCC(=O)N1CCCc2cc(S(=O)(=O)CCC(=O)Nc3ccccc3C)ccc21 | 6.44 |
| Cc1ccc(S(=O)(=O)N2CCN(C(=O)COC(=O)c3cccnc3Cl)CC2)c(C)c1 | 5.86 |
| Cc1ccc(NC(=O)C2CC(O)CN2C(=O)OCc2ccccc2)c(C)c1 (centres unmarked) | 10.5 |
| CC(C)NS(=O)(=O)c1ccc(CCC(=O)NCc2ccco2)cc1 | 8.06 |
| CCCCOC(=O)Nc1ccc(C(N)=O)cc1 | 1.76 |
| Cc1cc(C)cc(NC(=O)COC(=O)CCC2CCCC2)c1 | 7.98 |
| O=C(Cn1cnc2ccccc21)Nc1ccc2c(c1)OCCCO2 | 4.48 |
| O=S(=O)(c1cccs1)N1CCCc2cccc(O)c21 | 14.1 |
| C=CCN1C(=O)C(Cc2ccc(OCC)cc2)S/C1=N\N=C\c1cccs1 (centres unmarked) | 8.01 |
| Clc1cc(Cl)cc(NC2=NCCS2)c1 | -0.763 |
| CC(C)(C)OC(=O)N[C@H](C(=O)OC(C)(C)C)c1ccc2ccccc2c1 | 6.32 |
| COC(=O)c1ccc(NS(=O)(=O)c2cccc3cccnc23)cc1 | 18.7 |
| O=C1/C(=C\c2ccc(-c3ccccc3Cl)o2)SC(=S)N1CC1CCCO1 (centres unmarked) | 11.4 |
| Cc1ccc(C(=O)Oc2cccc(NC(=O)c3ccco3)c2)cc1S(=O)(=O)N1CCC(C)CC1 | -7.04 |
| O=S1(=O)N=C(Nc2ccc(O)c(CN3CCCCC3)c2)c2ccccc21 | 6.69 |
| COC(=O)c1ccccc1NC(=O)C1CCN(c2ncnc3c2nc2n3CCCCC2)CC1 | 12.7 |
| CCn1cc(CN2CCC(C(=O)Nc3cccc(-c4cccc(Cl)c4)c3)CC2)cn1 | -34.4 |
| O=C(Cc1cccs1)N/N=C/C=C/c1ccco1 | 6.05 |
| CC(=O)c1ccc(N2CCN(S(=O)(=O)c3ccccc3)CC2)c(F)c1 | 13.7 |

| Compound | hERG current change (%, negative = inhibition) at 1uM [%] |
| --- | --- |
| NC(=S)N=Nc1c(O)n(CC(=O)Nc2ccccc2)c2ccccc12 | 14.5 |
| COC(=O)[C@@]1(Cc2ccc(OC)cc2)[C@H]2c3cc(C(=O)N4CCCC4)n(CCn4cc([N+](=O)[O-])nc4C)c3C[C@H]2CN1C(=O)c1ccccc1 | 13.3 |
| CC(C)CC(CO)N1CCN(C(=O)c2ccc(Cl)c(Cl)c2)CCC1=O (centres unmarked) | 8.29 |
| CCOc1cccc(CNc2ccc(O)cc2)c1OCc1ccc(Cl)cc1Cl | 10.8 |
| CCNC(=S)N/N=C(\C)c1ccc(N2CCOCC2)cc1 | 18.7 |
| Nc1nc2c(C(=O)N3CCOCC3)nnn2c2ccccc12 | 17.5 |
| O=C(COC(=O)C1CCN(c2ccc(C(F)(F)F)cn2)CC1)Nc1cc(F)ccc1F | 12.4 |
| COCCN(C(=O)CSc1nnc(-c2cccc(C)c2)n1C)c1c(N)n(Cc2ccccc2)c(=O)[nH]c1=O | 11.4 |
| CC(=O)c1cccc(NC(=O)N2C3CCC2CC(NC(=O)C2CC2)C3)c1 (centres unmarked) | 7.2 |
| NS(=O)(=O)c1ccc(CCNS(=O)(=O)c2cccc3cccnc23)cc1 | 14.2 |
| CCOC(=O)N1CCN(C(=O)c2cc3cc(Cl)ccc3[nH]2)CC1 | 1.55 |
| Cc1nc2ccc(C(=O)N3CCN(c4ccccn4)CC3)cc2s1 | 11.5 |
| Fc1cccc(/C=N/Nc2nccnc2Cl)c1 | 14.1 |
| CCC(C)NC(=O)c1ccc(N2CC3CC(C2)c2cccc(=O)n2C3)c(NC(=O)c2ccc(Br)o2)c1 (centres unmarked) | 12.9 |
| C=CCOc1ccc(/C=C2\SC(N3CCCCC3)=NC2=O)cc1 | 14.4 |
| O=C([O-])c1cc(-c2ccccc2)cc(-c2ccccc2)[n+]1Cc1ccccc1 | 7.44 |
| COc1ccc(C(=O)NCc2nnc(SCC(=O)Nc3cccc(F)c3)o2)cc1 | 4.69 |
| Cc1ccc(OCC(=O)NCc2cccs2)c([N+](=O)[O-])n1 | 2.47 |
| Cc1cc(C(=O)NCc2ccc(Cl)cc2)n(-c2ccccc2)n1 | -8.92 |
| COc1ccc(OC)c(C(O)c2nc3ccccc3n2C(C)C)c1 (centres unmarked) | 12.9 |

— paper PMC4336329 (PLoS ONE, 2015)
